Measurements reported in PMC12820563, “FoxP3 forms a head-to-head dimer in vivo and stabilizes its multimerization on adjacent microsatellites”.
Some of the results follow.

molecular target: T1, MBP-FoxP1dN (Mus musculus, UniProt P58462 326-579); assay: PD-seq (MBP pull-down with sequencing); 20 mM Tris-HCl pH 7.5, 100 mM NaCl, 1.5 mM MgCl2, 0.4 uM protein, 0.1 uM dsDNA library, 30 min, room temperature, amylose pull-down; high values mean tight binding; conditions: protein: recombinant; tags: His6-MBP; chain copies: 2; dsDNA, one strand shown
T1 sequence: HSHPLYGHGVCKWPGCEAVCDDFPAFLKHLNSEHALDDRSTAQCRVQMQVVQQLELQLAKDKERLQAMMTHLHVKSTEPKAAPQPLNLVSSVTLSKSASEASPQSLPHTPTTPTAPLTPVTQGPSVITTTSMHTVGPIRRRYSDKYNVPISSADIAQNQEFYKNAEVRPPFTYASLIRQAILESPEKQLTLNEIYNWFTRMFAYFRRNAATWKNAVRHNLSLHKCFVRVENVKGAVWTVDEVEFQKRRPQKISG
Procedure, shortened: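 E. coli-expressed mouse FoxP3 or FoxP1 fragment, N-terminus removed and tagged with His6-MBP, was used at 0.4 µM against 0.1 µM of a Klenow-filled degenerate double-stranded DNA library. After 30 min at room temperature in Tris pH 7.5 buffer with NaCl and MgCl2, complexes were pulled down on amylose resin and washed three times. Binding is pull-down over input reads-per-million enrichment from pooled replicates of the proteinase K-released, PCR-barcoded, Illumina-sequenced DNA.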

Sequence | binding signal
GATGATTGTTCTCCCAGCTGATGAATTGTTCATCTCGAGTAAACAAATTTTCCTAATCTTTCTGTTCAAGCGCCATCTAC | 1.13 RPM ratio (pull-down/input)
GATGATTGTTCTCCCAGCTGATGAATTTAAATAATCGAGTAAACAAATTTTCCTAATCTTTCTGTTCAAGCGCCATCTAC | 1.44 RPM ratio (pull-down/input)
GATGATTGTTCTCCCAGCTGATGAATTATCGGTGTCGAGTAAACAAATTTTCCTAATCTTTCTGTTCAAGCGCCATCTAC | 1.09 RPM ratio (pull-down/input)
GATGATTGTTCTCCCAGCTGATGAATTGTACACTTCGAGTAAACAAATTTTCCTAATCTTTCTGTTCAAGCGCCATCTAC | 1.23 RPM ratio (pull-down/input)
GATGATTGTTCTCCCAGCTGATGAATTCGTTTCGTCGAGTAAACAAATTTTCCTAATCTTTCTGTTCAAGCGCCATCTAC | 0.895 RPM ratio (pull-down/input)
GATGATTGTTCTCCCAGCTGATGAATTTACTGAATCGAGTAAACAAATTTTCCTAATCTTTCTGTTCAAGCGCCATCTAC | 1.28 RPM ratio (pull-down/input)
GATGATTGTTCTCCCAGCTGATGAATTGCCACCCTCGAGTAAACAAATTTTCCTAATCTTTCTGTTCAAGCGCCATCTAC | 1 RPM ratio (pull-down/input)
GATGATTGTTCTCCCAGCTGATGAATTCGTACCCTCGAGTAAACAAATTTTCCTAATCTTTCTGTTCAAGCGCCATCTAC | 0.848 RPM ratio (pull-down/input)
GATGATTGTTCTCCCAGCTGATGAATTCGACTAATCGAGTAAACAAATTTTCCTAATCTTTCTGTTCAAGCGCCATCTAC | 0.991 RPM ratio (pull-down/input)
GATGATTGTTCTCCCAGCTGATGAATTCGGCCTCTCGAGTAAACAAATTTTCCTAATCTTTCTGTTCAAGCGCCATCTAC | 0.795 RPM ratio (pull-down/input)
GATGATTGTTCTCCCAGCTGATGAATTGGTTAATTCGAGTAAACAAATTTTCCTAATCTTTCTGTTCAAGCGCCATCTAC | 1.07 RPM ratio (pull-down/input)
GATGATTGTTCTCCCAGCTGATGAATTGTATAATTCGAGTAAACAAATTTTCCTAATCTTTCTGTTCAAGCGCCATCTAC | 1.27 RPM ratio (pull-down/input)
GATGATTGTTCTCCCAGCTGATGAATTGAGTCGTTCGAGTAAACAAATTTTCCTAATCTTTCTGTTCAAGCGCCATCTAC | 0.827 RPM ratio (pull-down/input)
GATGATTGTTCTCCCAGCTGATGAATTTGTAACCTCGAGTAAACAAATTTTCCTAATCTTTCTGTTCAAGCGCCATCTAC | 1.11 RPM ratio (pull-down/input)
GATGATTGTTCTCCCAGCTGATGAATTGGTTTGCTCGAGTAAACAAATTTTCCTAATCTTTCTGTTCAAGCGCCATCTAC | 1.07 RPM ratio (pull-down/input)
GATGATTGTTCTCCCAGCTGATGAATTGTATTATTCGAGTAAACAAATTTTCCTAATCTTTCTGTTCAAGCGCCATCTAC | 1.67 RPM ratio (pull-down/input)

Sequence | binding signal
GATGATTGTTCTCCCAGCTGATGAATTTCTAGACTCGAGTAAACAAATTTTCCTAATCTTTCTGTTCAAGCGCCATCTAC | 0.86 RPM ratio (pull-down/input)
GATGATTGTTCTCCCAGCTGATGAATTGTAGCGATCGAGTAAACAAATTTTCCTAATCTTTCTGTTCAAGCGCCATCTAC | 1.04 RPM ratio (pull-down/input)
GATGATTGTTCTCCCAGCTGATGAATTCCGGGGGTCGAGTAAACAAATTTTCCTAATCTTTCTGTTCAAGCGCCATCTAC | 0.722 RPM ratio (pull-down/input)
GATGATTGTTCTCCCAGCTGATGAATTCATGATTTCGAGTAAACAAATTTTCCTAATCTTTCTGTTCAAGCGCCATCTAC | 1.05 RPM ratio (pull-down/input)
GATGATTGTTCTCCCAGCTGATGAATTTCTACTTTCGAGTAAACAAATTTTCCTAATCTTTCTGTTCAAGCGCCATCTAC | 0.891 RPM ratio (pull-down/input)
GATGATTGTTCTCCCAGCTGATGAATTCCGTATATCGAGTAAACAAATTTTCCTAATCTTTCTGTTCAAGCGCCATCTAC | 1.03 RPM ratio (pull-down/input)
GATGATTGTTCTCCCAGCTGATGAATTGAAACTGTCGAGTAAACAAATTTTCCTAATCTTTCTGTTCAAGCGCCATCTAC | 0.899 RPM ratio (pull-down/input)
GATGATTGTTCTCCCAGCTGATGAATTTTTCACTTCGAGTAAACAAATTTTCCTAATCTTTCTGTTCAAGCGCCATCTAC | 0.951 RPM ratio (pull-down/input)
GATGATTGTTCTCCCAGCTGATGAATTACGATCGTCGAGTAAACAAATTTTCCTAATCTTTCTGTTCAAGCGCCATCTAC | 0.952 RPM ratio (pull-down/input)
GATGATTGTTCTCCCAGCTGATGAATTGCGGCTGTCGAGTAAACAAATTTTCCTAATCTTTCTGTTCAAGCGCCATCTAC | 1.05 RPM ratio (pull-down/input)
GATGATTGTTCTCCCAGCTGATGAATTTCTGGTATCGAGTAAACAAATTTTCCTAATCTTTCTGTTCAAGCGCCATCTAC | 0.908 RPM ratio (pull-down/input)
GATGATTGTTCTCCCAGCTGATGAATTGGGAGCATCGAGTAAACAAATTTTCCTAATCTTTCTGTTCAAGCGCCATCTAC | 1.05 RPM ratio (pull-down/input)
GATGATTGTTCTCCCAGCTGATGAATTGCTGCTATCGAGTAAACAAATTTTCCTAATCTTTCTGTTCAAGCGCCATCTAC | 1.1 RPM ratio (pull-down/input)
GATGATTGTTCTCCCAGCTGATGAATTACCCGCATCGAGTAAACAAATTTTCCTAATCTTTCTGTTCAAGCGCCATCTAC | 1.21 RPM ratio (pull-down/input)
GATGATTGTTCTCCCAGCTGATGAATTGGTTGACTCGAGTAAACAAATTTTCCTAATCTTTCTGTTCAAGCGCCATCTAC | 1.01 RPM ratio (pull-down/input)
